Among all 150,000 compounds or so, about 540 (0.36%) showed an effect of 50% or more. The list shows a part of the results.
Each compound was assayed on Plasmodium falciparum (assay: Primary screen in NF54 nanoGlo assay, in single point, at 2uM, 72h; a lower Z score goes with more inhibition). Details: timepoint 72 hour.
Format: functional, Erythrocyte
In the case of `O=C(NCC(F)(F)F)N1CCC[C@H]1c1ccc[nH]1`, the “% Inhibition” value is reported as -3% and the Z score is reported as 0.27. With `CCCN(CC(=O)O)c1ccnc(N(C)C)n1` the “% Inhibition” value was -18% and the Z score was 2.82. `Cc1cc(NS(=O)(=O)c2cc3c(cc2Br)NC(=O)CO3)n(C)n1` was tested, and the “% Inhibition” value was 12% and the Z score was -2.06. In the case of `COc1cc2c(cc1CN1CCC3(CC1)C[C@H](O)CO3)OCO2`, the “% Inhibition” value is reported as 7% and the Z score is reported as -1.04. For `COCCn1cc(CN2CCN(c3ccccn3)CC2)ccc1=O`, the “% Inhibition” value was -5% and the Z score was 0.98. For `O=C(Cc1cccs1)N1CCC[C@@H]1CF`, the “% Inhibition” value was -12% and the Z score was 1.42. With `Cc1ccccc1Cn1c2ccccc2c2ncn(Cc3ccc(F)cc3)c(=O)c21` the “% Inhibition” value was 5% and the Z score was -0.62. In the case of `Cc1cc(N2CCC(c3nnc(CN4CCOCC4)n3C)CC2)ncn1`, the “% Inhibition” value is reported as 10% and the Z score is reported as -1.31. In the case of `CC(C)(C)c1ccn(C2(C(=O)O)CCN(Cc3cccc(O)c3)CC2)n1`, the “% Inhibition” value is reported as -18% and the Z score is reported as 2.22. With `Cc1csc(NC(=O)OC(C)(C)C)c1` the “% Inhibition” value was 1% and the Z score was -0.18. For `Cc1ccc(S(=O)(=O)N2CCC(c3cc(C(=O)Nc4ccccc4F)[nH]n3)CC2)s1`, the “% Inhibition” value was -6% and the Z score was 1.16. For `Cc1cccc(-c2ncc(C(=O)NCC(C)C)c(Oc3ccc4c(c3)OCO4)n2)c1`, the “% Inhibition” value was 10% and the Z score was -1.21. With `CC(C)CCn1c(=O)c(-c2ccc3ccccc3n2)cc2ccccc21` the “% Inhibition” value was -1% and the Z score was 0.07. `C[C@](O)(CNS(C)(=O)=O)c1cccs1` was tested, and the “% Inhibition” value was 0% and the Z score was -0.02. For `CC(C)n1c(N2CCCN(C(=O)c3cccc(Br)c3)CC2)cc(=O)n(C(C)C)c1=O`, the “% Inhibition” value was 1% and the Z score was -0.23. In the case of `COC(=O)c1ccc(CN[C@@H](C)c2cnn(-c3cccc4ccccc34)c2C)cc1`, the “% Inhibition” value is reported as 7% and the Z score is reported as -0.83. For `Cc1nn(C)c(C)c1CC(=O)N1CCC2(CCC2)S(=O)(=O)CC1`, the “% Inhibition” value was -5% and the Z score was 0.46. In the case of `Cc1cc(C)nc(N[C@@H](Cc2ccccc2)C(=O)Nc2cccc(-c3nnn(C)n3)c2)n1`, the “% Inhibition” value is reported as 1% and the Z score is reported as -0.09. For `COc1cccc(CNC(=O)N2CCN(Cc3cccc(C)c3)C(=O)[C@@H]2C)c1`, the “% Inhibition” value was -15% and the Z score was 1.84. `CC(C)N(C(=O)c1ccc(CS(C)(=O)=O)o1)C(C)C` was tested, and the “% Inhibition” value was -9% and the Z score was 1.22. `COC1(c2nc(-c3ccsc3)no2)CCOCC1` was tested, and the “% Inhibition” value was -7% and the Z score was 1.31. `C[C@@H](C(=O)N1CCN(c2ccccc2Cl)CC1)n1nc2c(cc1=O)CCC2` was tested, and the “% Inhibition” value was 19% and the Z score was -2.44. In the case of `CCOC(=O)c1cc(C(=O)Nc2cccc(S(=O)(=O)N3CCOCC3)c2)nn1C`, the “% Inhibition” value is reported as 1% and the Z score is reported as -0.18. With `CC(C)c1nc(CC(=O)N2CCCc3cc(Cl)ccc32)cs1` the “% Inhibition” value was 5% and the Z score was -0.85. `O=C(c1cn2c(n1)CCCC2)N1CCN2C(=O)NC[C@H]2C1` was tested, and the “% Inhibition” value was -9% and the Z score was 1.53. With `Cc1cc2ncc3c(n2n1)CCN(C(=O)CCc1ccccc1F)C3` the “% Inhibition” value was -2% and the Z score was 0.31. In the case of `Cc1nc(CN2CCN(C)C(=O)C2)n(C)c1C`, the “% Inhibition” value is reported as -10% and the Z score is reported as 1.31. `Cc1nnc([C@H](C)NC(=O)c2cc(Cl)c(C)c(Cl)c2)o1` was tested, and the “% Inhibition” value was -11% and the Z score was 1.94. `COc1cc(/C=C/CN2CCC[C@H](CNC(=O)c3ccco3)C2)ccc1O` was tested, and the “% Inhibition” value was 8% and the Z score was -1.03. For `CCc1nccn1C[C@H]1CC2(CCOCC2)CO1`, the “% Inhibition” value was -10% and the Z score was 0.88. For `O=C(Nc1ccc(F)cc1F)Nc1cccc2c(-c3ccccc3)c(C(=O)N3CCOCC3)[nH]c12`, the “% Inhibition” value was -9% and the Z score was 1.46. In the case of `COc1ccc(-c2cc(C(=O)N3CC[C@@]4(CN(C)C(=O)CO4)C3)n[nH]2)cc1`, the “% Inhibition” value is reported as -9% and the Z score is reported as 0.88. For `c1nncn1Cc1noc([C@@H]2CCCO2)n1`, the “% Inhibition” value was -4% and the Z score was 0.58. In the case of `CCOC(=O)c1ccc(NC(=O)N(Cc2nnc(CC)o2)C(C)C)cc1`, the “% Inhibition” value is reported as -5% and the Z score is reported as 0.85. For `O=C(NCC(F)(F)F)N1CC[C@@]2(C1)OCc1ccccc12`, the “% Inhibition” value was -6% and the Z score was 0.8. With `Cc1ccc(C#N)nc1N1CCCO[C@@H](C)C1` the “% Inhibition” value was -10% and the Z score was 1.17. `NC(=O)c1cnc(NC(=O)c2ncccc2Oc2ccccc2)s1` was tested, and the “% Inhibition” value was -36% and the Z score was 4.22. For `CN1Cc2ccccc2S(=O)(=O)NC1=O`, the “% Inhibition” value was -5% and the Z score was 0.97. `O=C(NC1(c2ncon2)CCC1)c1ccccc1O` was tested, and the “% Inhibition” value was -20% and the Z score was 2.54. With `CCCc1nc(N(C)C[C@H]2CCCN2C)no1` the “% Inhibition” value was -9% and the Z score was 1.16. With `COCCn1cc(C2C(C(=O)Nc3nc(COC)cs3)CC(=O)N2C(C)(C)C)cn1` (stereo unspecified) the “% Inhibition” value was 8% and the Z score was -1.11. In the case of `C[C@@H](NC(=O)c1ccc(F)cc1)c1onc(-c2ccccc2)c1C(=O)O`, the “% Inhibition” value is reported as -10% and the Z score is reported as 1.3. `CC(C)n1nc(C(=O)NCCCOC2CCN(Cc3ccccc3)CC2)c2c1CCOC2` was tested, and the “% Inhibition” value was -13% and the Z score was 1.67. `O[C@H]1Cc2ccccc2[C@H]1Nc1nc(-c2ccccn2)nc2c1CCNC2` was tested, and the “% Inhibition” value was 29% and the Z score was -2.29. `CCc1nc(C)sc1C(=O)Nc1nc(C(=O)OC)c(CCc2ccccc2)s1` was tested, and the “% Inhibition” value was 9% and the Z score was -1.38. In the case of `Cc1cc(C)n(-c2ccc(N3CCC(Nc4c(C)noc4C)CC3)cc2)n1`, the “% Inhibition” value is reported as -4% and the Z score is reported as 0.78. In the case of `CCNC(=O)N1CCc2nc(N(C)C3CCCCC3)nc(N3CCOCC3)c2C1`, the “% Inhibition” value is reported as -12% and the Z score is reported as 1.15. `COc1cccn(CC(=O)N2C[C@H]3CC[C@@H](C2)[C@H]3OC)c1=O` was tested, and the “% Inhibition” value was -3% and the Z score was 0.32. For `Cc1ccc(N2C[C@@H](C(=O)Nc3c(C)n(C)n(-c4ccccc4)c3=O)CC2=O)cc1`, the “% Inhibition” value was -3% and the Z score was 0.48. For `CCCN(C(=O)c1cccs1)C1CCN(C(=O)c2ccc(COC)cc2)CC1`, the “% Inhibition” value was -4% and the Z score was 0.48. `Cc1ccsc1-c1nnc(CC(=O)NCc2ccncc2)o1` was tested, and the “% Inhibition” value was -9% and the Z score was 1.5. In the case of `CCn1ccc(C(=O)Nc2cccc(-c3nc4ccccc4s3)c2)n1`, the “% Inhibition” value is reported as -15% and the Z score is reported as 2.59. `COc1cccc(-c2csc(-c3nc(-c4ccc(C)cc4)c(C)s3)n2)c1` was tested, and the “% Inhibition” value was -2% and the Z score was 0.21. `CCCCn1nc(C(C)C)nc1-c1scnc1C` was tested, and the “% Inhibition” value was -16% and the Z score was 1.63. With `O=C(CC[C@H]1CCCN(C(=O)c2cn3ccccc3n2)C1)N1CCN(c2ccccn2)CC1` the “% Inhibition” value was -7% and the Z score was 1.26. For `CCC(=O)N1CCN(C(=O)C2(O)CCCCC2)C1`, the “% Inhibition” value was -11% and the Z score was 2.22. `CC(C)(C)OC(=O)N[C@H](C(N)=O)C1CCCCC1` was tested, and the “% Inhibition” value was -21% and the Z score was 2.1. `Cn1nc(CN2CCOCC2)c2c1CCN(S(=O)(=O)c1cccc3cccnc13)C2` was tested, and the “% Inhibition” value was -14% and the Z score was 1.53. `Cc1nc2ncnn2c(N2CCN(CC(C)C)C(=O)C2)c1C` was tested, and the “% Inhibition” value was 19% and the Z score was -2.76. In the case of `Cc1cc2c(cc1CNC(=O)c1ccccc1F)OCCCO2`, the “% Inhibition” value is reported as -11% and the Z score is reported as 1.61. In the case of `O=C(NCc1ccncc1)C1C2C(=O)N(C3CCCC3)C[C@]23C=C[C@H]1O3` (stereo partly specified), the “% Inhibition” value is reported as -14% and the Z score is reported as 1.77. For `O[C@H]1[C@H](NCc2nccs2)[C@H]2CO[C@H](O2)[C@@H]1n1ccnc1`, the “% Inhibition” value was 32% and the Z score was -3.6. For `CC(C)(C)NC(=O)CNC(=O)C1CCCCC1`, the “% Inhibition” value was -3% and the Z score was 0.46. `C[C@H](Nc1ccc(Cl)cc1Cl)C(=O)N1CCC2(CCC2)C1` was tested, and the “% Inhibition” value was 2% and the Z score was -0.21. In the case of `C#CCCNC(=O)NCc1snc(OC)c1Br`, the “% Inhibition” value is reported as -6% and the Z score is reported as 0.96. In the case of `O=C(Nc1ccc(-c2nc(-c3ccccc3)c3cc(NC(=O)c4cccs4)ccc3n2)cc1)c1cccs1`, the “% Inhibition” value is reported as -3% and the Z score is reported as 0.67. With `CC(C)c1nc(CCNC(=O)c2cccc(-c3ncnn3C(C)C)c2)no1` the “% Inhibition” value was -12% and the Z score was 2.05. With `Cc1ccc(C(=O)N(CC(=O)N2CCc3sccc3C2COc2ccc(C)cc2C)CC2CCCO2)cc1` (stereo unspecified) the “% Inhibition” value was -8% and the Z score was 1.35. In the case of `COCc1nc(-c2ccc(-n3ccnc3)cc2)n(CCO)n1`, the “% Inhibition” value is reported as -9% and the Z score is reported as 1.43. With `NC(=O)c1cc([C@H]2CCCN(Cc3nnnn3C3CC3)C2)n[nH]1` the “% Inhibition” value was -13% and the Z score was 1.29. In the case of `CCCN1CCN(c2ccc(NC(=O)Cn3nc4ccccn4c3=O)c(OCC)c2)CC1`, the “% Inhibition” value is reported as -10% and the Z score is reported as 1.88. In the case of `C[C@@H](C(=O)Nc1nncs1)N1CCCCCCC1`, the “% Inhibition” value is reported as -3% and the Z score is reported as 0.45. With `COCCN1C[C@]2(CCCN(c3ccc(C#N)cn3)C2)CCC1=O` the “% Inhibition” value was 6% and the Z score was -1.2. In the case of `Cc1nccn1CCNC(=O)c1cnn2ccn(C)c12`, the “% Inhibition” value is reported as 0% and the Z score is reported as 0.06. `CC(=O)Nc1ccc(S(=O)(=O)Nc2nnc(Cc3ccc(Cl)cc3)s2)cc1` was tested, and the “% Inhibition” value was -9% and the Z score was 1.65. With `O=C(Nc1c2c(nc3ccccc13)CCCC2)c1ccccc1Br` the “% Inhibition” value was -14% and the Z score was 1.83. `Cc1cc([C@H](C(=O)O)N(C)CCCCN2CCOCC2)ccc1F` was tested, and the “% Inhibition” value was -17% and the Z score was 2.33. For `CCN1CCN(C(=O)C[C@H](c2cccc(C(F)(F)F)c2)c2c[nH]c3ccc(OC)cc23)CC1`, the “% Inhibition” value was 2% and the Z score was -0.3. With `CCOc1ccc(-c2cc(C(=O)NCCc3ccc(OC)c(OC)c3)c3c(-c4ccc(F)cc4)[nH]nc3n2)cc1` the “% Inhibition” value was -19% and the Z score was 1.76. In the case of `Cc1ccc(-n2ncc3c2CC(C)(C)C[C@@H]3NS(=O)(=O)c2cccnc2)cc1`, the “% Inhibition” value is reported as -15% and the Z score is reported as 1.84. In the case of `CC(C)N(CC(=O)N1c2ccccc2-n2cccc2[C@H]1c1ccc(F)cc1)C(=O)c1ccc(Cl)cc1Cl`, the “% Inhibition” value is reported as -9% and the Z score is reported as 1.24. In the case of `CCN(C[C@@H](C)O)C(=O)c1ncccc1-n1ncc2ccccc21`, the “% Inhibition” value is reported as -7% and the Z score is reported as 1.38. With `Cc1cc(C)cc(CCC(=O)Nc2c(C)noc2C2CC2)c1` the “% Inhibition” value was 2% and the Z score was -0.28.
